# According to ChEMBL document CHEMBL4888484, “Replenishing the malaria drug discovery pipeline: Screening and hit evaluation of the MMV Hit Generation Library 1 (HGL1) against asexual blood stage Plasmodium falciparum ,using a nano luciferase reporter read-out” (2022):
# Screen size: about 150,000 compounds; about 540 (0.36%) showed an effect of 50% or more. Some of the results follow.
# Test system: Plasmodium falciparum
# Assay: Primary screen in NF54 nanoGlo assay, in single point, at 2uM, 72h; a lower Z score goes with more inhibition
# Type: functional, Erythrocyte
# Conditions: timepoint 72 hour
SMILES,% Inhibition,Z score
O=C(Cn1cncn1)Nc1cc(C2CCCCCC2)[nH]n1,-1%,0.15
COc1ccc2cc3c(nc2c1)N(C(=O)c1cccc(C)c1)CC3,-8%,0.87
COc1ccc(CCNC(=O)Cn2c(=O)n(CCc3ccc(Cl)cc3)c(=O)c3ccccc32)cc1OC,-2%,0.19
Cn1cc(C(=O)N[C@@H](Cn2cccn2)c2ccccc2)ccc1=O,1%,-0.18
Cc1ccc(C(C)NC(=O)NCC2CCC(O)C2)cc1F (stereo not drawn),-5%,0.74
Cc1ccc(-c2ncc[nH]2)cc1NC(=O)[C@]1(C)CCCNC1=O,-15%,2.34
Cc1ccccc1Oc1nc(N2CCCC2)nc2c1CN(Cc1ccncc1)CC2,-9%,1
CCc1oc(C(=O)NCCOc2nonc2C)cc1CN1CCCC1,10%,-1.33
COc1cccc(OCc2nc(-c3cnn[nH]3)n(CCO)n2)c1,2%,-0.2
CCC(=O)N(CCOC)Cc1cc(NC(=O)C2CCC2)ccc1N(C)C,-8%,1.16
CC(C)(C)[C@@H]1NC(=O)N(Cc2cc(Br)c3c(c2)OCCO3)C1=O,3%,-0.53
C[C@H]1Cc2ccccc2N1C(=O)Cn1cc(C(=O)c2ccco2)c2ccccc21,-35%,4.1
CC(C)c1cc([C@@H]2CCCN2C(=O)NCc2ccccc2)on1,0%,0.03
O=S(=O)(c1ccc(Cl)c(Cl)c1)N1CC(n2ccnn2)C1,-16%,2.99
C=CCN1CCC[C@H]1C(=O)N1CCC(COC(C)C)CC1,-4%,0.78
Cc1c[nH]c(CN(C)C(=O)c2c(C)noc2C)n1,-9%,1.79
Cc1ccc(O[C@H]2CCCN(C(=O)Cc3cccnc3)C2)nn1,2%,-0.4
Brc1cncc(N[C@H]2CCC3(C2)OCCO3)c1,-3%,0.38
Cc1ccc(CC(=O)Nc2nnc(C3CC3)s2)cc1,-17%,2.71
CCn1cc(OCc2nc(-c3ccsc3)no2)cn1,-10%,1.33
O=C(CNCC1CC1)Nc1cccc(Cl)c1,-4%,0.39
Cc1nc2cc(NC(=O)c3ccc[n+]([O-])c3)ccc2o1,-3%,0.45
O=C1C[C@H](c2ncnn2Cc2ccc(F)cc2)CN1Cc1ccncc1,-3%,0.46

SMILES,% Inhibition,Z score
CO[C@@H](Cn1ccnc1-c1ccnc2ccccc12)c1cccs1,3%,-0.57
C[C@H]1CCCN(S(=O)(=O)NCCc2ccc3c(c2)OCCO3)C1,-2%,0.22
CCc1nc(CN(C)C(=O)c2cncc(F)c2)no1,9%,-1.34
Cc1cnc(N2C[C@H](C3CC3)[C@@H](N)C2)nc1N(C)C,0%,0.07
C[C@@H](CN(C)CCO)NCc1cc2cc(Cl)ccc2[nH]1,-5%,0.62
CCOc1cc(C(=O)NCCc2sc(C)nc2C)n[nH]1,-5%,0.63
COc1ccc([C@@H]2CC(=O)c3cnc(N4CCCC4)nc3C2)c(OC)c1,2%,-0.19
Cc1ccc(=O)n(C(C)C(=O)N2c3ccccc3CC2C)n1 (stereo not drawn),10%,-1.29
COCCN(Cc1c(-c2ccccc2)noc1N1CCCC1)C[C@H](O)COCc1ccccc1,9%,-1.06
CC(C)(C)OC(=O)N1CCOC[C@H]1c1nc(-c2cccnc2)cs1,-12%,1.32
CC1CCN(C(=O)C2CCNC(=O)C2)C2CCCCC12 (stereo not drawn),-2%,0.24
Oc1cc(Cc2ccccc2)nc2c(-c3ccccc3)c(COc3ccccc3)nn12,-8%,1.24
Cc1ncnc(C)c1C(=O)N(C)Cc1cscn1,-3%,0.5
Cc1nccc(N2CCC(N3CCC[C@H](C(=O)NCc4ccccn4)C3)CC2)n1,-17%,3.21
CC(C)(NC(=O)c1n[nH]c2c1CCCC2)c1nnc(N)s1,-13%,1.8
c1nc(C2CN(c3nc(C4CCOCC4)ns3)C2)ncc1C1CC1,-9%,1.63
Cc1ccc([C@H](C)NCCOc2cccnc2)s1,-13%,1.32
Cc1cc(CCC(=O)NCc2nc(C(C)C)cs2)[nH]n1,0%,-0.06
Cc1n[nH]c(C)c1[C@H](C)N(C)C(=O)CCCN1CCCC1=O,2%,-0.28
O=C(OCC(=O)N1CCCc2ccccc21)c1cccc(S(=O)(=O)N2CCCc3ccccc32)c1,-6%,0.92
CN(Cc1csc(-c2ccccc2)n1)C(=O)[C@@H]1COCCO1,-1%,0.21
CN=C(NCCC1=CCOCC1)N1CC[C@H](CC(C)C)C1,1%,-0.07
CCCN(C)C(=O)c1coc(CN2CCN(Cc3ccccc3)CC2)n1,1%,-0.21

SMILES,% Inhibition,Z score
CN(C)C(=O)c1ccc(CN(CCO)c2ccccc2)[nH]1,6%,-1
Cn1nnc(COc2cccc(C(C)(C)C)c2)n1,14%,-2.7
Cc1cc(NC(=O)CS(=O)(=O)Cc2ccccc2)no1,-10%,1.85
C(=Cc1ccccc1)COn1cccn1,2%,-0.32
Cc1nc(C(=O)N2Cc3sccc3CC2(C)C)c[nH]1,-10%,1.31
Cc1cc(NC(=O)C(=O)NCCCN(C)c2cccc(F)c2)n(C)n1,29%,-3.94
CS(=O)(=O)CCC(=O)NCC=Cc1ccccc1,3%,-0.3
CC(=O)c1c(-c2cccc(-c3ccn[nH]3)c2)cnn1C,0%,0.02
Cc1ccc(C(C)C)c(OS(=O)(=O)c2ccc3c(c2)NC(=O)CO3)c1,-13%,2.62
CCCn1ncnc1[C@H](C)NC(=O)c1ccc(C)n1C(F)F,-16%,1.58
O=C(NCc1cccnc1-c1ccco1)c1cncc(Br)c1,-13%,2.43
Cc1cc(S(=O)(=O)N(C)CCC(=O)O)sc1C,-30%,2.75
CC1=N[C@@H](C)C(=O)Nc2cccc(C)c21,-7%,1.34
CC1CN(C(C#N)c2ccco2)CCO1 (stereo not drawn),-11%,1.47
CCOC(=O)N1CCC(NC(=O)[C@H]2CC23CCN(Cc2ccc(O)c(OCC)c2)CC3)CC1,-6%,0.73
CCN(CC)C(=O)N(C)Cc1ccccc1,5%,-0.91
CC[C@H](C)NCC(=O)Nc1ccc(F)cc1,-36%,4.27
CC(C)(C)c1ccc(S(=O)(=O)Nc2cccc3c2C(=O)NC3)s1,-7%,0.98
CCNC(=O)N1CC[C@H](NC(=O)c2ccc(C)c3c2CCC3)C1,-3%,0.48
Cc1ccc(N2CCN(CCn3cnnc3)[C@@H](C)C2)cc1,3%,-0.64
Cc1cc(-c2nc(C)nn2-c2ccc(F)cc2)[nH]n1,-16%,2.09
N#Cc1ccccc1NC(=O)Cn1nc(C2CC2)cc1C(F)F,-42%,4.9
CC(C)CN1C[C@H](CNC(=O)c2cnn(C)c2)OCC1=O,-17%,2.21

SMILES,% Inhibition,Z score
CC1OCCCC1C(=O)NCc1ncoc1-c1ccccc1 (stereo not drawn),-9%,1.56
Cc1oncc1NC(=O)C1CCC(F)(F)CC1,-6%,0.73
CC1CCN(c2ncnc(Oc3ccc4c(c3)OCO4)c2N)CC1,-4%,0.83
O=C(CN1CCC(N2C[C@H](COc3ccc(F)cc3)OCC2=O)CC1)NC1CC1,0%,-0.01
CCOC(=O)N1CCC(Nc2cncc(Br)c2)CC1,-6%,0.49
Cc1cc(CNc2ncc(C(=O)N3CCCCC3)cc2Cl)cc(C)n1,2%,-0.35
CC1CCCC(CCNS(=O)(=O)N2CC(C)OC(C)C2)C1 (stereo not drawn),-10%,0.87
COc1cc2c(nn1)CCN(Cc1nccn1Cc1ccccc1)C2,8%,-1.08
Cc1ccccc1[C@H]1CN(C(=O)CCc2ccncc2)C[C@@H]1C(=O)O,-12%,1.19
Cc1nc(-n2cnnc2)ccc1-c1cc[nH]n1,0%,-0.03
COc1cccc(C(=O)Nc2sc(-c3ccccc3)c(C)c2C(=O)N2CCOCC2)c1,0%,-0.09
O=C(Cc1cccs1)NCC[C@H](O)c1cccs1,-3%,0.38
CCn1ccnc1-c1nc2c([nH]1)C[C@H](c1cccc(OC)c1)CNC2=O,-9%,1.47
O=C(CC1CCN(C(=O)c2cc3ccccc3[nH]2)CC1)NCc1ccc(Cl)cc1,8%,-1.26
Cc1cc(C2CC(C(=O)NC3CC3)CN(C(=O)NC(C)C)C2)ccc1F (stereo not drawn),-11%,1.63
C[C@H](NC(=O)c1cc(COC(C)(C)C)on1)C1CC1,5%,-0.67
COc1ccc(CN2CC[C@H](c3nnc(-c4ccncc4)o3)C2)cc1,-2%,0.34
CCOC(=O)C1CCN(C(=O)c2c(-c3ccccc3)nnc3ccc(C)cc23)CC1,1%,-0.13
O[C@@]1(CNc2nc3cc(F)ccc3o2)CCOC1,1%,-0.14
CN(Cc1cnn(C)c1)C(=O)C1CC(O)CN1C(=O)COc1ccccc1 (stereo not drawn),1%,-0.13
